The campaign covered roughly 39,000 compounds. About 220 (0.56%) showed activity. Some of the results follow.
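Note: static incubation at 37 °C against the wild-type strain, values averaged over two biological replicates.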

In the assay the test system is Escherichia coli K-12 BW25113. Kind of assay: relative growth (OD600 normalised to plate interquartile mean) (fraction); higher = less growth inhibition, active = 0.2 or less. Particulars: 50 µM; LB; incubation time: overnight (16-24 h).
For `CCC(=O)N[C@@H]1C=C[C@H](CC(=O)OC)O[C@H]1CO`, the relative growth is inactive: 1.01.

Consider `C[C@@H]1CCCCO[C@@H](CN(C)Cc2ccc3c(c2)OCO3)[C@H](C)CN([C@@H](C)CO)C(=O)c2cc(NC(=O)Nc3cccc4ccccc34)ccc2O1`, for which the relative growth is inactive: 0.991. To `C[C@@H]1CCCCO[C@@H](CN(C)Cc2ccc3c(c2)OCO3)[C@H](C)CN([C@@H](C)CO)C(=O)c2cc(NC(=O)CCC(F)(F)F)ccc2O1` belongs inactive: 1.03. The figure for `C[C@H](CO)N1C[C@H](C)[C@H](CN(C)S(=O)(=O)c2cn(C)cn2)Oc2ncc(C#Cc3cccc(F)c3)cc2C1=O` is inactive: 0.965; for `CN1CCN(C(=O)C[C@@H]2CC[C@H]3[C@@H](COC[C@H](O)CN3C(=O)C3CC3)O2)CC1` it is inactive: 0.964; for `C[C@@H]1CCCCO[C@@H](CN(C)S(=O)(=O)c2cccs2)[C@@H](C)CN([C@H](C)CO)C(=O)c2cc(NS(=O)(=O)c3ccc(Cl)cc3)ccc2O1` it is inactive: 0.969.

`CCS(=O)(=O)NCC[C@H]1CC[C@H](NC(=O)Cc2ccccn2)[C@@H](CO)O1`: the relative growth was inactive: 1.01.

Take `CN(C)C(=O)C[C@H]1CC[C@@H](NC(=O)C2CC2)[C@H](CO)O1`: the relative growth is inactive: 0.983. `COc1ccc(NC(=O)N(C)C[C@H]2OCCCC[C@@H](C)Oc3ccc(NC(=O)NC(C)C)cc3C(=O)N([C@H](C)CO)C[C@H]2C)cc1`: the relative growth was inactive: 0.976. The figure for `Cc1noc(C)c1NC(=O)Nc1ccc2c(c1)C(=O)N([C@H](C)CO)C[C@@H](C)[C@@H](CN(C)Cc1ccc(C(=O)O)cc1)OCCCC[C@@H](C)O2` is inactive: 0.994. Regarding `C[C@H]1CN([C@@H](C)CO)C(=O)c2cccc(NS(=O)(=O)c3ccc(Cl)cc3)c2O[C@@H]1CN(C)Cc1ccc(Cl)c(Cl)c1`, the relative growth is inactive: 0.981. To `O=C(Nc1ccc(C(F)(F)F)cc1)Nc1ccc2c(c1)[C@H]1C[C@@H](CC(=O)N3CCc4ccccc4C3)O[C@@H](CO)[C@H]1O2` belongs inactive: 1.03; to `Cc1noc(C)c1S(=O)(=O)Nc1ccc2c(c1)C(=O)N([C@@H](C)CO)C[C@@H](C)[C@@H](CN(C)C(=O)NC(C)C)O2`, inactive: 1.01; to `C[C@H]1CCCCO[C@@H](CN(C)C(=O)c2ccccc2)[C@@H](C)CN([C@@H](C)CO)C(=O)c2cc(NC(=O)c3ccccc3)ccc2O1`, inactive: 1.01. The figure for `C[C@H]1CCCCO[C@@H](CN(C)S(=O)(=O)c2ccccc2)[C@@H](C)CN([C@@H](C)CO)C(=O)c2cc(NC(=O)NC3CCCCC3)ccc2O1` is inactive: 1.01; for `C[C@@H]1CN([C@H](C)CO)C(=O)c2cc(NS(C)(=O)=O)ccc2O[C@@H]1CN(C)C(=O)Nc1ccc2c(c1)OCO2` it is inactive: 0.984.
